Results taken from the supplement of paper PMC8728848.
The other results are listed elsewhere or left out.

Experiments:
Assay in all cases: glycan array binding signal (z-score within array); higher = stronger binding
Details in all cases: glycan notation: IUPAC condensed, linker removed
[1] = target: Fuc(a1-2)[GalNAc(a1-3)]Gal(b1-3)GlcNAc(b1-6)GalNAc
In short: (§1)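 Columns mapping to the same glycan were averaged after glycan names were converted to IUPAC-condensed notation. The data come from 3228 arrays in the Consortium for Functional Glycomics database, limited to those with an available protein sequence. Binding is reported as a within-array Z-score averaged across arrays of one protein sequence and across linkers.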

[2] = target: Fuc(a1-2)[GalNAc(a1-3)]Gal(b1-4)Glc
In short: as §1

[3] = target: Fuc(a1-2)[GalNAc(a1-3)]Gal(b1-4)GlcNAc
In short: as §1

[4] = target: Fuc(a1-2)[GalNAc(a1-3)]Gal(b1-4)GlcNAc(b1-2)Man
In short: as §1

[5] = target: Fuc(a1-2)[GalNAc(a1-3)]Gal(b1-4)GlcNAc(b1-2)Man(a1-3)[Fuc(a1-2)[GalNAc(a1-3)]Gal(b1-4)GlcNAc(b1-2)Man(a1-6)]Man(b1-4)GlcNAc(b1-4)GlcNAc
In short: as §1

[6] = target: Fuc(a1-2)[GalNAc(a1-3)]Gal(b1-4)GlcNAc(b1-2)Man(a1-3)[Fuc(a1-2)[GalNAc(a1-3)]Gal(b1-4)GlcNAc(b1-2)Man(a1-6)]Man(b1-4)GlcNAc(b1-4)[Fuc(a1-6)]GlcNAc
In short: as §1

[7] = target: Fuc(a1-2)[GalNAc(a1-3)]Gal(b1-4)GlcNAc(b1-3)Gal(b1-4)GlcNAc
In short: as §1

[8] = target: Fuc(a1-2)[GalNAc(a1-3)]Gal(b1-4)GlcNAc(b1-3)Gal(b1-4)GlcNAc(b1-3)Gal(b1-4)GlcNAc
In short: as §1

[9] = target: Fuc(a1-2)[GalNAc(a1-3)]Gal(b1-4)GlcNAc(b1-3)GalNAc
In short: as §1

[10] = target: Fuc(a1-2)[GalNAc(a1-3)]Gal(b1-4)GlcNAc(b1-3)[Fuc(a1-2)[GalNAc(a1-3)]Gal(b1-4)GlcNAc(b1-6)]GalNAc
In short: as §1

[11] = target: Fuc(a1-2)[GalNAc(a1-3)]Gal(b1-4)GlcNAc(b1-6)GalNAc
In short: as §1

[12] = target: Fuc(a1-2)[GalNAc(a1-3)]Gal(b1-4)[Fuc(a1-3)]GlcNAc
In short: as §1

[13] = target: Fuc(a1-2)[GalNAc(a1-3)]Gal(b1-4)[Fuc(a1-3)]GlcNAc(b1-3)GalNAc
In short: as §1

[14] = target: Fuc(a1-2)[GalNAc(a1-4)]Gal(b1-4)GlcNAc
In short: as §1

[15] = target: Fuc(a1-2)[GalNAc(b1-3)]Gal
In short: as §1

Fuc(a1-3)GlcNAc = target: Fuc(a1-3)GlcNAc
In short: as §1

[16] = target: Fuc(a1-3)[Gal(b1-4)]Glc6S
In short: as §1

[17] = target: Fuc(a1-3)[Gal(b1-4)]GlcNAc
In short: as §1

[18] = target: Fuc(a1-3)[Gal(b1-4)]GlcNAc(b1-2)Man
In short: as §1

[19] = target: Fuc(a1-3)[Gal(b1-4)]GlcNAc(b1-2)Man(a1-3)[Fuc(a1-3)[Gal(b1-4)]GlcNAc(b1-2)Man(a1-6)]Man(b1-4)GlcNAc(b1-4)GlcNAc
In short: as §1

[20] = target: Fuc(a1-3)[Gal(b1-4)]GlcNAc(b1-2)Man(a1-3)[Fuc(a1-3)[Gal(b1-4)]GlcNAc(b1-2)Man(a1-6)]Man(b1-4)GlcNAc(b1-4)[Fuc(a1-6)]GlcNAc
In short: as §1

[21] = target: Fuc(a1-3)[Gal(b1-4)]GlcNAc(b1-3)Gal(b1-3)[Fuc(a1-4)]GlcNAc
In short: as §1

[22] = target: Fuc(a1-3)[Gal(b1-4)]GlcNAc(b1-3)Gal(b1-4)[Fuc(a1-3)]GlcNAc
In short: as §1

[23] = target: Fuc(a1-3)[Gal(b1-4)]GlcNAc(b1-3)Gal(b1-4)[Fuc(a1-3)]GlcNAc(b1-3)Gal(b1-4)[Fuc(a1-3)]GlcNAc
In short: as §1

[24] = target: Fuc(a1-3)[Gal(b1-4)]GlcNAc(b1-3)GalNAc
In short: as §1

[25] = target: Fuc(a1-3)[Gal(b1-4)]GlcNAc(b1-6)GalNAc
In short: as §1

[26] = target: Fuc(a1-3)[Gal(b1-4)]GlcNAc(b1-6)[Gal(b1-3)GlcNAc(b1-3)]Gal(b1-4)Glc
In short: as §1

[27] = target: Fuc(a1-3)[Gal(b1-4)]GlcNAc6S
In short: as §1

[28] = target: Fuc(a1-3)[Gal3S(b1-4)]Glc
In short: as §1

[29] = target: Fuc(a1-3)[Gal3S(b1-4)]GlcNAc
In short: as §1

[30] = target: Fuc(a1-3)[Gal3S(b1-4)]GlcNAc6S
In short: as §1

[31] = target: Fuc(a1-3)[GalNAc(b1-4)]GlcNAc
In short: as §1

[32] = target: Fuc(a1-3)[GalNAc(b1-4)]GlcNAc6S
In short: as §1

Fuc(a1-4)GlcNAc = target: Fuc(a1-4)GlcNAc
In short: as §1

Fuc(b1-3)GlcNAc = target: Fuc(b1-3)GlcNAc
In short: as §1

Gal(a1-2)Gal = target: Gal(a1-2)Gal
In short: as §1

Gal(a1-3)Gal = target: Gal(a1-3)Gal
In short: as §1

Gal(a1-3)Gal(b1-3)GlcNAc = target: Gal(a1-3)Gal(b1-3)GlcNAc
In short: as §1

[33] = target: Gal(a1-3)Gal(b1-3)GlcNAc(b1-2)Man
In short: as §1

[34] = target: Gal(a1-3)Gal(b1-3)GlcNAc(b1-2)Man(a1-3)[Gal(a1-3)Gal(b1-3)GlcNAc(b1-2)Man(a1-6)]Man(b1-4)GlcNAc(b1-4)GlcNAc
In short: as §1

[35] = target: Gal(a1-3)Gal(b1-3)GlcNAc(b1-3)GalNAc
In short: as §1

[36] = target: Gal(a1-3)Gal(b1-3)GlcNAc(b1-6)GalNAc
In short: as §1

[37] = target: Gal(a1-3)Gal(b1-3)[Fuc(a1-4)]GlcNAc(b1-2)Man(a1-3)[Gal(a1-3)Gal(b1-3)[Fuc(a1-4)]GlcNAc(b1-2)Man(a1-6)]Man(b1-4)GlcNAc(b1-4)GlcNAc
In short: as §1

Gal(a1-3)Gal(b1-4)Glc = target: Gal(a1-3)Gal(b1-4)Glc
In short: as §1

Gal(a1-3)Gal(b1-4)GlcNAc = target: Gal(a1-3)Gal(b1-4)GlcNAc
In short: as §1

B1: PX14343H-pdi-506-26-506 (Parabacteroides distasonis) (protein)
chain: QPTGTMTTDSKLTSKESALALTNSAYLKNTVFNKMTPGWGCNTILLLEYMTGKATSENSQSNYKDFQDLLVSDRSLYIEDWWQDCYAGIANCNLALQKLGEFENLDASLVNGYMAEVKFMRALYYFYLVRIFGDVPKITTVQSELGELQVSRAPVKEIYDEIIIPDLLEAEQSDLAFSDHTGRVSMGAVKALLADVYLTYAGYPLQGGKSYYAESAKRSLEVIKSNEYTLFTDYESLRLPSQNNKGEFIYQVQFSLNKRHNESVRIFLPSRSGISAYDLEYGSLIPTKEFVESFEKGDKRTEEKQYFFTNYKGHPSKFSPGAAELEFMDLNGYYIYKFFDQVAVDNTAKSDLNWSVYRYTDVLLMYAEAQVNADGTPNQQSIDIVNQIRGRAGLAPFKQTNASAFLEEVWDQRYFDLCYENKMWFDMLRTRKIRDDKSGEYVDFIGYKTNWGKVYTETQLLFPIPLSERQANPNLTQNQGY
[1]
  glycan array binding signal (z-score): -0.137
[2]
  glycan array binding signal (z-score): -0.474
[3]
  glycan array binding signal (z-score): -0.526
[4]
  glycan array binding signal (z-score): -0.523
[5]
  glycan array binding signal (z-score): 4.7
[6]
  glycan array binding signal (z-score): -0.287
[7]
  glycan array binding signal (z-score): -0.435
[8]
  glycan array binding signal (z-score): -0.352
[9]
  glycan array binding signal (z-score): -0.4
[10]
  glycan array binding signal (z-score): 0
[11]
  glycan array binding signal (z-score): -0.405
[12]
  glycan array binding signal (z-score): -0.269
[13]
  glycan array binding signal (z-score): 0.196
[14]
  glycan array binding signal (z-score): 1.09
[15]
  glycan array binding signal (z-score): 1.11
Fuc(a1-3)GlcNAc
  glycan array binding signal (z-score): -0.396
[16]
  glycan array binding signal (z-score): -0.364
[17]
  glycan array binding signal (z-score): -0.329
[18]
  glycan array binding signal (z-score): -0.424
[19]
  glycan array binding signal (z-score): 2.09
[20]
  glycan array binding signal (z-score): 2.77
[21]
  glycan array binding signal (z-score): -0.325
[22]
  glycan array binding signal (z-score): -0.254
[23]
  glycan array binding signal (z-score): -0.528
[24]
  glycan array binding signal (z-score): 0.696
[25]
  glycan array binding signal (z-score): -0.188
[26]
  glycan array binding signal (z-score): 0.353
[27]
  glycan array binding signal (z-score): 0.1
[28]
  glycan array binding signal (z-score): -0.426
[29]
  glycan array binding signal (z-score): -0.382
[30]
  glycan array binding signal (z-score): -0.299
[31]
  glycan array binding signal (z-score): -0.381
[32]
  glycan array binding signal (z-score): -0.247
Fuc(a1-4)GlcNAc
  glycan array binding signal (z-score): -0.438
Fuc(b1-3)GlcNAc
  glycan array binding signal (z-score): -0.359
Gal(a1-2)Gal
  glycan array binding signal (z-score): -0.25
Gal(a1-3)Gal
  glycan array binding signal (z-score): 1.63
Gal(a1-3)Gal(b1-3)GlcNAc
  glycan array binding signal (z-score): -0.133
[33]
  glycan array binding signal (z-score): -0.187
[34]
  glycan array binding signal (z-score): 3.96
[35]
  glycan array binding signal (z-score): -0.382
[36]
  glycan array binding signal (z-score): -0.284
[37]
  glycan array binding signal (z-score): 1.39
Gal(a1-3)Gal(b1-4)Glc
  glycan array binding signal (z-score): 0.159
Gal(a1-3)Gal(b1-4)GlcNAc
  glycan array binding signal (z-score): -0.321
